This note sets out measurements from publication PMC12203670.

Chains of the proteins cited; added tags and fusions are not shown.
UniProt P52480: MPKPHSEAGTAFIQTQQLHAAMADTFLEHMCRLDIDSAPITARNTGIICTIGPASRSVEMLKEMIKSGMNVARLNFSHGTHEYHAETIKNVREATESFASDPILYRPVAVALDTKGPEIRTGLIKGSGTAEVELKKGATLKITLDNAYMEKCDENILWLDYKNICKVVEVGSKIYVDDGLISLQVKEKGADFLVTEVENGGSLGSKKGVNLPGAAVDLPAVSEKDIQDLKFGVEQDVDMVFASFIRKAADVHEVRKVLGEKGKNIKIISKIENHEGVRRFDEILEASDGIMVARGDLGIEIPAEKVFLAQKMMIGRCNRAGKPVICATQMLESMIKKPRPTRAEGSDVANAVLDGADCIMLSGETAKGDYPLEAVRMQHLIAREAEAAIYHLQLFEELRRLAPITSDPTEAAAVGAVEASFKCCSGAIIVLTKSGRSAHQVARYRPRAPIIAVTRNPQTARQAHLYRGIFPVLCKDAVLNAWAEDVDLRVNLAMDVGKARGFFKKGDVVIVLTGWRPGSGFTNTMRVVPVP

These are yes or no findings as the source states them, for the method shown. Some entries that bind do so weakly or less than the wild type. Sequences can lack the tags named with a protein.

This experiment addresses GST-PKM2, purified recombinant (UniProt P52480). Nature of the experiment: pull-down; GST pull-down with purified recombinant GST-PKM2 and His-MTX2; both purified.

B1: polyhistidine-MTX2, purified recombinant (protein, UniProt O88441 1-263)
chain: MSLVAEAFVSQIAATEPWPENATLYQQLRGEQILLSDNAASLAVQAFLQMCNLPVKVVCRANAEYMSPSGKVPFIHVGNQVVSELGPIVQFVKAKGHSLSDGLDEVQKAEMKAYMELVNNMLLTAELYLQWCDEATVGEITIARYGSPYPWPLNHILAYQKQWEVKRKMKAIGWGNKTLDQVLEDVDQCCQALSQRLGTQPYFFNKQPTELDALVFGHLYTILTTQLTSDELSEKVKNYSNLLAFCRRIEQHYFEDWGKGRLS
Regarding B1, the binding entry is “binds”.
